Experimental data reported in patent US20230416360A1 (SIMCERE ZAIMING PHARMACEUTICAL, published 2023).

T1: human CD22-ECD-His (human, UniProt P20273 20-687)
T1 construct: Made in HEK293E, purified on nickel column; also called hCD22-ECD-His; recombinant human CD22-ECD His; not shown: His tag
T1 sequence: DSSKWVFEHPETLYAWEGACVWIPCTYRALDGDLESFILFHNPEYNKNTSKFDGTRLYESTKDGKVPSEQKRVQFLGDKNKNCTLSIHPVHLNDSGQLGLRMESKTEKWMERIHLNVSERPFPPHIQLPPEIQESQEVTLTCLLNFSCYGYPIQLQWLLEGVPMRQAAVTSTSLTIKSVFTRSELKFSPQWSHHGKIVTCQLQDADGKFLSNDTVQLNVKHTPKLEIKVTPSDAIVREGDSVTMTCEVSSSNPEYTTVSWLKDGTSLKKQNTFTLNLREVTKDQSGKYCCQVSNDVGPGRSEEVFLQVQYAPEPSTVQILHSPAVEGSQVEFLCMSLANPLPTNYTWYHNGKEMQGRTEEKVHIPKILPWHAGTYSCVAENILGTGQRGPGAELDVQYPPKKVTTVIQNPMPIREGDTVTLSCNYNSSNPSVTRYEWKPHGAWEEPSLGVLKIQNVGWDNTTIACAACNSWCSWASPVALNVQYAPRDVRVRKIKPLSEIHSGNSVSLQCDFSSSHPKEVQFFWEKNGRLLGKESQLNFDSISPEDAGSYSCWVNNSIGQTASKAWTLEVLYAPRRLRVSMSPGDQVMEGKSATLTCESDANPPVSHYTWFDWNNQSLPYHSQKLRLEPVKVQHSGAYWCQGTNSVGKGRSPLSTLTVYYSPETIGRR

T2: murine CD22-ECD-His (mouse, UniProt P35329 22-708)
T2 construct: extracellular domain; Bought; also called mouse CD22; murine CD22 protein
T2 sequence (looked up): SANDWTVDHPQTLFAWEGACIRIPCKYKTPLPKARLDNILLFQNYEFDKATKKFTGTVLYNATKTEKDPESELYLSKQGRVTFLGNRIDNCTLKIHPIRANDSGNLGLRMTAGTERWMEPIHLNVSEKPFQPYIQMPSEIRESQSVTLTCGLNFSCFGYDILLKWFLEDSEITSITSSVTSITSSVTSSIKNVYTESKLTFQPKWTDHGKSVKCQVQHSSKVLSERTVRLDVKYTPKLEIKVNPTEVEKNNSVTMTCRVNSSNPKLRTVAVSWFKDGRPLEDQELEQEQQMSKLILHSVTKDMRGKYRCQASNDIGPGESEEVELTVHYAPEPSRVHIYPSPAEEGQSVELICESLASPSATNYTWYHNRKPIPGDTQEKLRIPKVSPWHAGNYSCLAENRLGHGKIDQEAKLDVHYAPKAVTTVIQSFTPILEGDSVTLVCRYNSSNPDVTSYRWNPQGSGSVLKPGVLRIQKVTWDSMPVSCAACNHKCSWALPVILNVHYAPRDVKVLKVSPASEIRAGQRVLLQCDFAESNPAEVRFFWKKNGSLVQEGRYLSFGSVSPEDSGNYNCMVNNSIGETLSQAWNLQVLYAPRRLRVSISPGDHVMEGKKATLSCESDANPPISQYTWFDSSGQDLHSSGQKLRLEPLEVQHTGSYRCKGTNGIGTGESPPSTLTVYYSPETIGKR

B1: S002-NB150-152n VHH-Fc (Fc fusion)
chain: EVQVVESGGGLVQTGGSLRLSCAASGRPFDWLTVGWFRQAPGKEREFVAAISQSGGRIFYSDSVKGRFTISRDNAKNTAFLQMNSLKPEDTAVYSCAAQMRGYSRAAYPDEYDYWGQGTQVTVSS[human IgG1 Fc with changes cut from this listing]
notes: VHH cloned into vector BI3.4-huIgG1 (hinge and human IgG1 Fc), made in HEK293E
B2: S002-NB151-14 VHH-Fc (Fc fusion)
chain: QVQLVESGGGLVQAGGSLRLSCTTSGGTLSRITMGWFRQAPGKEREFVAAIKWGGSSTPYSDSVKGRFTISRDNAKNTVYLQMDRLVPEDTAVYYCAGGLRGPYSDSVTSSVQYNYWGQGTQVTVSS[human IgG1 Fc with changes cut from this listing]
notes: VHH cloned into vector BI3.4-huIgG1 (hinge and human IgG1 Fc), made in HEK293E; also called 5002-NB151-14

Assays:
human CD22-ECD-His [1] = biological target: T1, human CD22-ECD-His; assay: ELISA, coated hCD22-ECD-His, antibody 100 nM
Procedure: (§1) The plate was sealed with plastic film and incubated overnight at 4° C., the plate was washed 2 times with PBS the next day, and then a blocking solution [PBS+2% (w/w) BSA] was added for blocking at room temperature for 2 hours. […] After incubation at 37° C. for 2 hours, the plate was washed 3 times with PBS. HRP (horseradish peroxidase)-labeled secondary antibody (purchased from Sigma, catalog number: A0170) was added, and incubated at 37° C. for 2 hours, and the plate was washed 5 times with PBS. TMB substrate was added at 50 μl/well, and incubated at room temperature for 30 minutes, then a stop solution (1.0 N HCl) was added at 50 μl/well.

murine CD22-ECD-His = biological target: T2, murine CD22-ECD-His; assay: ELISA, coated mouse CD22, antibody 0.10 nM
Procedure: as §1

human CD22-ECD-His [2] = biological target: T1, human CD22-ECD-His; assay: ELISA, coated hCD22-ECD-His, antibody 0.10 nM
Procedure: as §1

| Binder | OD450 (human CD22-ECD-His [1]) | OD450 (murine CD22-ECD-His) | OD450 (human CD22-ECD-His [2]) |
| --- | --- | --- | --- |
| B1 | 3.33 | 0.06 | 2.66 |
| B2 | 2.01 | 0.06 | 1.28 |
